# Assay results: PubChem BioAssay AID1508642 (National Center for Advancing Translational Sciences (NCATS), 2021)
# Among all 43,000 compounds or so, about 200 (0.47%) were called active. This list was built around the results that the source calls inconclusive (neither active nor inactive); the mix of calls is not that of the screen. Calls come from the whole dose curve; as a rule, active = well fitted cell-killing curve with a large enough effect; inconclusive = small, poorly fitted or top-dose-only effect, or effect the other way; inactive = flat fitted curve, though single readings scatter. Where the call is inconclusive, the potency comes from a doubtful curve fit.
# Test: Cell viability qHTS assay in S16 Pmp22-F2sN cells; note: nearly all actives have a fitted effect of over 65% in size
# Conditions: S16 Pmp22-F2sN Schwann cells (luciferase reporters placed in the Pmp22 gene) viability, CellTiter-Glo, 24 h; series mostly up to 57.5 µM
# Method in brief: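 Rat S16 Schwann reporter line, 24 h treatment with library compounds delivered at 23 nL per well. Cell viability by CellTiter-Glo luminescence.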
# Potency is the fitted concentration of half-maximal effect; tags give direction and shape of the fitted curve.
row,Compound,Potency
1,Cc1ccc(CNC(=O)c2ccc(Cn3c(=O)c4ccccc4n(CC(=O)Nc4ccc(C)cc4)c3=O)cc2)cc1,"inconclusive: 31.6 µM [rising, partial curve, poor fit]"
2,Clc1ccc(CN2CCC(CNc3ncnc4onc(-c5ccc(Cl)cc5)c34)CC2)cc1,"inconclusive: 39.8 µM [cytotoxic, single point]"
3,O=C(CSCc1ccc(F)cc1)N1CCN(c2ccc(Cl)cc2)CC1,"inconclusive: 39.8 µM [cytotoxic, single point]"
4,CCc1c(C)nc(SCc2nc(-c3ccccc3)no2)[nH]c1=O,"inconclusive: 0.0501 µM [cytotoxic, full curve, poor fit]"
5,COc1cc(OC)c(OC)cc1/C=C/c1nc2cc3ccccc3cc2c(=O)n1-c1ccc(F)c(Cl)c1,"inconclusive: 39.8 µM [cytotoxic, single point]"
6,Cc1cc(C)cc(NC(=O)CSc2oc(-c3ccccc3)nc2S(=O)(=O)c2ccccc2)c1,"inconclusive: 25.1 µM [cytotoxic, single point]"
7,CCOc1ccc(C(=O)Nc2cccc(NC(=O)c3ccc(C(C)(C)C)cc3)c2)cc1Br,"inconclusive: 11.2 µM [cytotoxic, partial curve, poor fit]"
8,Cc1ccc(CNC(=O)CN(c2cccc(C)c2C)S(=O)(=O)c2ccccc2)cc1,"inconclusive: 39.8 µM [cytotoxic, single point]"
9,CCN(Cc1ccccc1)C(=O)Cn1c(=O)n(-c2cccc(C)c2)c(=O)c2c1c1cc(C)ccc1n2C,"inconclusive: 0.562 µM [rising, full curve, poor fit]"
10,O=C(CCC1N=C2c3ccccc3N=C(SCc3cccc(Cl)c3)N2C1=O)N1CCN(c2ccccc2)CC1 (stereo not drawn),"inconclusive: 39.8 µM [cytotoxic, single point]"
11,COc1ccc(NC(=O)c2c(NC(=O)c3ccncc3)sc3c2CCC(C(C)(C)C)C3)cc1 (stereo not drawn),"inconclusive: 39.8 µM [cytotoxic, single point]"
12,CCc1ccc(N(CC)C(=O)c2sc3nc4n(c(=O)c3c2C)CCCC4)cc1,inactive
13,Cn1nnnc1SCCCNCc1ccccc1OCc1ccc(F)cc1,"inconclusive: 39.8 µM [cytotoxic, single point]"
14,CC(C)c1cnc2c(c1SCC(=O)Nc1ccc(C(N)=O)cc1)c(=O)n(C)c(=O)n2C,inactive
15,CCN1C(=O)c2ccccc2Sc2ccc(NC(=O)c3cccc(C)c3)cc21,"inconclusive: 20 µM [cytotoxic, partial curve, poor fit]"
16,Cc1ccc(NC(=O)Nc2cccs2)c(C)c1,"inconclusive: 39.8 µM [cytotoxic, single point]"
17,CN(CCCNC(=O)c1cc2c(=O)n(C)c3ccccc3c2s1)Cc1ccccc1,"inconclusive: 35.5 µM [cytotoxic, single point]"
18,CCC(=O)N1CCCc2cc(S(=O)(=O)N3CCC(C(=O)Nc4cccc(Cl)c4)CC3)ccc21,"inconclusive: 17.8 µM [cytotoxic, partial curve]"
19,Cc1ccc(C(=O)Nc2ccc3oc(-c4cc(Br)ccc4Cl)nc3c2)cc1,"inconclusive: 35.5 µM [cytotoxic, single point]"
20,Cc1nc2c(-c3ccccc3)c(C)nn2c(C)c1CCC(=O)NCc1ccccc1,"inconclusive: 20 µM [rising, partial curve, poor fit]"

row,Compound,Potency
1,CCOc1ccc(NC(=O)c2nnn(-c3ccc(F)c(Cl)c3)c2C)cc1,"inconclusive: 0.1 µM [cytotoxic, full curve, poor fit]"
2,Cc1cc(NCc2ccc(Cl)cc2)n2cnnc2n1,"inconclusive: 10 µM [cytotoxic, partial curve, poor fit]"
3,Cc1cccc(-c2noc(-c3ccc(NCc4cccnc4)c([N+](=O)[O-])c3)n2)c1,inactive
4,O=C(NCc1ccccc1Cl)c1ccc(NC(=O)N2CCSc3ccccc32)cc1,inactive
5,COc1ccc(OC)c(NC(=O)c2c(NCc3ccc(N(C)C)cc3)sc3c2CCCC3)c1,inactive
6,CCOC(=O)c1ccccc1NC(=O)Cn1c(=O)n(-c2ccc(CC)cc2)c(=O)c2c(C)c(C(=O)N(C)C)sc21,"inconclusive: 39.8 µM [cytotoxic, single point]"
7,O=C(Cn1c(SCC(=O)Nc2ccc(F)cc2)nc2ccccc21)NCc1ccc(Cl)cc1,"inconclusive: 39.8 µM [cytotoxic, single point]"
8,CC(C)Sc1nc2sc3c(c2c(=O)n1-c1ccccc1)CCCC3,inactive
9,O=C(Nc1ccc(F)c(Cl)c1)C1CCN(S(=O)(=O)c2ccc3c(c2)CCCN3C(=O)C2CCC2)CC1,"inconclusive: 31.6 µM [cytotoxic, single point]"
10,Cc1coc2c(C)c3oc(=O)c(CCC(=O)N4CCCCC4)c(C)c3cc12,"inconclusive: 39.8 µM [cytotoxic, single point]"
11,CCCN1CCN(CCCNC(=O)c2cc3c(s2)-c2ccccc2OC3)CC1,"inconclusive: 39.8 µM [cytotoxic, single point]"
12,COc1ccccc1CCNC(=O)C(=O)NCC(c1cccnc1)N1CCN(c2ccccc2)CC1 (stereo not drawn),"inconclusive: 22.4 µM [cytotoxic, partial curve, poor fit]"
13,Cc1nc2c(c(C)c1CCC(=O)Nc1ccc(F)cc1)c(=O)n(C)c(=O)n2C,"inconclusive: 20 µM [rising, partial curve, poor fit]"
14,COc1ccccc1-c1nc2c(c(SCc3cc(C)ccc3C)n1)Cc1c(CO)cnc(C)c1O2,"inconclusive: 39.8 µM [cytotoxic, single point]"
15,CCCNC(=O)Cn1nc(-c2ccc(C)c(C)c2)c2cnc3ccc(OC)cc3c21,"inconclusive: 39.8 µM [cytotoxic, single point]"
16,COc1ccc(CNCCC(c2ccc(C)cc2)c2ccco2)cc1 (stereo not drawn),"inconclusive: 39.8 µM [cytotoxic, single point]"
17,Cc1ccc(N(CC(O)Cn2c3ccccc3c3ccccc32)S(=O)(=O)c2ccc(F)cc2)cc1 (stereo not drawn),"inconclusive: 28.2 µM [cytotoxic, single point]"
18,COc1ccc(CCNc2ncnc3onc(-c4ccc(Cl)cc4)c23)c(OC)c1,"inconclusive: 39.8 µM [cytotoxic, single point]"
19,CCOc1ccc(CNC(=O)c2ccc(Sc3ccc(C)cc3)c(N)c2)cc1OC,"inconclusive: 31.6 µM [cytotoxic, partial curve, poor fit]"
20,CCn1c(=O)c2cc(C(=O)NCCc3ccc(OC)c(OC)c3)sc2c2ccccc21,"inconclusive: 0.316 µM [rising, full curve]"

row,Compound,Potency
1,CC1=C(C(=O)Nc2ccc(C)cc2C)C(c2cc(Br)ccc2F)n2ncc(C(=O)Nc3ccc(C)cc3)c2N1 (stereo not drawn),"inconclusive: 25.1 µM [cytotoxic, single point]"
2,COC(=O)CSc1nnc(-c2cccc(O)c2)o1,inactive
3,COc1cccc(CNC(=O)Nc2ccc3c(c2)N(C)C(=O)c2ccccc2S3)c1,"inconclusive: 28.2 µM [cytotoxic, partial curve]"
4,COc1ccc(CNC(=O)C2CCN(c3nnc(C)c4c(C)n(-c5ccc(C)cc5)nc34)CC2)cc1,"inconclusive: 28.2 µM [cytotoxic, single point]"
5,O=C(Nc1nnc2n1CCS2)c1cc(C(F)(F)F)cc(C(F)(F)F)c1,"inconclusive: 10 µM [cytotoxic, partial curve]"
6,CCOc1ccc(N(C)S(=O)(=O)c2cc(-c3cnc(C)o3)ccc2OC)cc1,"inconclusive: 15.8 µM [cytotoxic, partial curve, poor fit]"
7,COc1ccc(CNC(=O)Cc2ccc(NC(=O)N3CCCCc4ccccc43)cc2)cc1,"inconclusive: 39.8 µM [cytotoxic, single point]"
8,COc1ccc(NC(=O)C(=O)c2cc(C)n(-c3ccc(C)cc3)c2C)cc1Cl,"inconclusive: 12.6 µM [cytotoxic, partial curve, poor fit]"
9,CC(C)c1ccc(NC(=O)c2cc(S(=O)(=O)NC3CCCCC3)ccc2F)cc1,"inconclusive: 22.4 µM [cytotoxic, partial curve, poor fit]"
10,Cc1c(Cl)cccc1NC(=O)CCn1cnnn1,inactive
11,COC(=O)c1cc(C)nc2c1c(=O)nc(SCc1cccc(C(F)(F)F)c1)n2C1CC1,"inconclusive: 28.2 µM [cytotoxic, partial curve, poor fit]"
12,COCCCN1C(=O)c2[nH]nc(-c3ccccc3O)c2C1c1ccc(OC)cc1 (stereo not drawn),"inconclusive: 25.1 µM [cytotoxic, partial curve, poor fit]"
13,O=c1cc2nc(-c3ccccc3F)nc(SCc3ccc(Br)cc3)n2[nH]1,"inconclusive: 1.12 µM [cytotoxic, partial curve, poor fit]"
14,CCOC(=O)c1c(C)[nH]c(C)c1S(=O)(=O)N1CCCC(C(=O)Nc2ccc(OC)c(OC)c2)C1 (stereo not drawn),"inconclusive: 39.8 µM [cytotoxic, single point]"
15,Cc1cccc(Cn2c(SCc3ccc(C(=O)NCc4cccs4)cc3)nc3cccnc32)c1,"inconclusive: 39.8 µM [cytotoxic, single point]"
16,O=C(C1CCC(CNS(=O)(=O)c2cccs2)CC1)N1CCN(c2ccc(Cl)cc2)CC1 (stereo not drawn),inactive
17,Cc1ccc(S(=O)(=O)N2CCC(c3nnc(-c4cccc(C)c4)o3)CC2)cc1,"inconclusive: 31.6 µM [cytotoxic, single point]"
18,CCOc1ccc(CNC(=O)CCc2c(C)nn(-c3ccc(N4CCOCC4)nn3)c2C)cc1,"inconclusive: 2.24 µM [cytotoxic, full curve, poor fit]"
